Data reported in PubChem BioAssay (Tox21).
Where “and” joins values, the source holds several entries; their conditions need not be identical. Equal values may be shown once. Inconclusive means that the source gave no clear call. Such entries were picked first, then a sample of the others. For some of these results: Potencies beside an inconclusive call are fits to weak or partial responses and may not hold up. Calls of active or inactive are those of the source. Unless noted, the call rests on the fitted dose curve.

Tests used:
[1] = target: Peroxisome proliferator-activated receptor gamma (Homo sapiens) (UniProt P37231); test: qHTS assay to identify small molecule antagonists of the peroxisome proliferator-activated receptor gamma (PPARg) signaling pathway (AID 743191); conditions: HEK293H PPARg-UAS-bla, beta-lactamase ratio, antagonist, 17 h; further: on the % scale 0 is the no-effect control and ±100 the full control effect; nearly all actives have a fitted effect of over 30% in size
Chain of UniProt P37231 (P37231 whole entry, looked up): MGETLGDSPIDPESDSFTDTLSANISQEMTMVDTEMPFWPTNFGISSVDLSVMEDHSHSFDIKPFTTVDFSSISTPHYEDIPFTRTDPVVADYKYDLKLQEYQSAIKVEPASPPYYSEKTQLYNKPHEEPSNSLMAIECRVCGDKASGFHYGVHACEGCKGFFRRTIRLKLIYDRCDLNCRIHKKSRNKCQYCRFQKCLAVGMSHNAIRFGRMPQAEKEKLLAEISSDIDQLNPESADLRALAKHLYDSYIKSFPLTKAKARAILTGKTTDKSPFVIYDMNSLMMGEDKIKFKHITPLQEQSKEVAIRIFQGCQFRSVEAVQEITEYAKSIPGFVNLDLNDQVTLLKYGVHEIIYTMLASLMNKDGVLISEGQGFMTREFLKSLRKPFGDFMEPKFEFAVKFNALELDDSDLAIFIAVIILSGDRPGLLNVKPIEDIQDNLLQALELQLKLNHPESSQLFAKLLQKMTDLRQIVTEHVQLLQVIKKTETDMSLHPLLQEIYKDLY
In short: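 GeneBLAzer PPARg UAS-bla HEK293H cells carrying a UAS-driven beta-lactamase reporter were plated at 3000 cells/well, preincubated 5 h at 37C, then given compound for 17 h at 37C; LiveBLAzer B/G FRET substrate was read after 1 h at room temperature.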

[2] = qHTS assay to identify small molecule antagonists of the peroxisome proliferator-activated receptor gamma (PPARg) signaling pathway - cell viability counter screen (AID 743194; active means well fitted curve in the direction sought with a large enough effect in the repeat runs; inconclusive means weak or mixed curves; inactive means no such curve, though single readings can be large; an effect the other way counts as inactive or inconclusive; further: nearly all actives have a fitted effect of over 55% in size; further: potency means the concentration at half of the fitted maximal effect; on activity change, negative = cytotoxicity: on the % scale 0 is the no-effect control and ±100 the full control effect); conditions: PPARg-bla HEK293H viability, CellTiter-Glo luminescence, 17 h; Potency: co-treated with 50 nM rosiglitazone unless noted; activity change, negative = cytotoxicity: at 62.6 µM (top of the series), co-treated with 50 nM rosiglitazone unless noted
In short: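 PPARg-UAS-bla HEK293H cells were plated, rested 5 h at 37 C, then treated with compounds plus rosiglitazone (50 nM final) for 17 h at 37 C; viability was then read by CellTiter-Glo luminescence after 30 min at room temperature.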

[3] = qHTS assay for small molecule agonists of the antioxidant response element (ARE) signaling pathway (AID 743202; active means well fitted activation curve with a large enough effect in the signal ratio in the repeat runs, not every such curve was filed as active; inconclusive means weak or mixed curves, or effect the other way; inactive means no such curve, though single readings can be large or run the other way; the % refers to the signal ratio; further: potency means the concentration at half of the fitted maximal effect; on activation: on the % scale 0 is the no-effect control and ±100 the full control effect); conditions: HepG2 ARE-bla reporter, beta-lactamase FRET, 16 h; activation: at 73.3 µM (top of the series) unless noted
In short: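 Read-out: LiveBLAzer B/G FRET substrate fluorescence after 2 h at room temperature, following 16 h compound treatment at 37 C of HepG2 cells carrying an ARE-driven beta-lactamase reporter.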

[4] = qHTS assay for small molecule agonists of the antioxidant response element (ARE) signaling pathway - cell viability counter screen (AID 743203); further: nearly all actives have a fitted effect of over 55% in size; further: potency means the concentration at half of the fitted maximal effect
In short: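 CellSensor ARE-bla HepG2 cells, 2,000 per well, rested 5 hrs at 37C/5% CO2, then exposed to compound in DMSO for 16 hrs; viability read as CellTiter-Glo luminescence after 30 min at room temperature, in the reporter wells.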

[5] = qHTS assay for small molecule activators of the heat shock response signaling pathway - cell viability counter screen (AID 743209; active means well fitted curve in the direction sought with a large enough effect in the repeat runs; inconclusive means weak or mixed curves; inactive means no such curve, though single readings can be large; an effect the other way counts as inactive or inconclusive; further: potency means the concentration at half of the fitted maximal effect; nearly all actives have a fitted effect of over 50% in size); conditions: HSE-bla HeLa viability, CellTiter-Glo luminescence, 5 h; activity change, negative = cytotoxicity: at 62.6 µM (top of the series) unless noted
In short: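 CellSensor HSE-bla HeLa cells, plated overnight at 37 C/5% CO2, were exposed to compounds in DMSO for 5 h at 37 C. Viability was then read in the same wells by CellTiter-Glo luminescence after 30 min at room temperature.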

[6] = qHTS assay for small molecule activators of the heat shock response signaling pathway (AID 743210; active means well fitted activation curve with a large enough effect in the signal ratio in the repeat runs, with a control signal flat, not every such curve was filed as active; inconclusive means weak or mixed curves; the % refers to the signal ratio; further: potency means the concentration at half of the fitted maximal effect); conditions: HeLa HSE-bla reporter, beta-lactamase ratio, 5 h; activation: at 62.6 µM (top of the series)
In short: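 HSE-bla HeLa cells (beta-lactamase reporter under heat shock response elements) were exposed to compounds for 5 h at 37 C, then loaded with LiveBLAzer B/G FRET substrate for 2.5 h at room temperature before fluorescence reading.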

[7] = qHTS assay to identify small molecule agonists of the peroxisome proliferator-activated receptor delta (PPARd) signaling pathway - cell viability counter screen (AID 743211; active means well fitted curve in the direction sought with a large enough effect in the repeat runs; inconclusive means weak or mixed curves; inactive means no such curve, though single readings can be large; an effect the other way counts as inactive or inconclusive; further: nearly all actives have a fitted effect of over 55% in size; further: potency means the concentration at half of the fitted maximal effect); conditions: PPARd-bla HEK293H viability, CellTiter-Glo luminescence, 17 h; activity change, negative = cytotoxicity: at 62.6 µM (top of the series) unless noted
In short: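 PPARd-bla HEK293H cells (UAS-beta-lactamase reporter) were treated with compounds for 17 h at 37 C. Viability was then read in the same wells by CellTiter-Glo luminescence after 30 min at room temperature.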

[8] = target: Peroxisome proliferator-activated receptor delta (Homo sapiens) (UniProt Q03181); test: qHTS assay to identify small molecule agonists of the peroxisome proliferator-activated receptor delta (PPARd) signaling pathway (AID 743212); conditions: HEK293H PPARd-UAS-bla, beta-lactamase FRET ratio, 17 h; activation: at 62.6 µM (top of the series) unless noted; further: potency means the concentration at half of the fitted maximal effect
Chain of UniProt Q03181 (Q03181 whole entry, looked up): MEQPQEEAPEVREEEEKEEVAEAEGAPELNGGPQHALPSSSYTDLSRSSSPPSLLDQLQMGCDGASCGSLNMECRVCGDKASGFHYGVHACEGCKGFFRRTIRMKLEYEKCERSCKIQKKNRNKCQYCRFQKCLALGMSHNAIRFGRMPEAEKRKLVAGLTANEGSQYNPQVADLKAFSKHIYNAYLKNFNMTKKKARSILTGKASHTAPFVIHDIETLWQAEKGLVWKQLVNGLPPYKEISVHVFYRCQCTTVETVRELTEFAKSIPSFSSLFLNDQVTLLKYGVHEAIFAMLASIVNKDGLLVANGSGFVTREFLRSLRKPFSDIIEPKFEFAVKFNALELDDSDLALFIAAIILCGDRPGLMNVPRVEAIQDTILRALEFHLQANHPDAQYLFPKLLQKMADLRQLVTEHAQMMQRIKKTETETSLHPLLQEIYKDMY
In short: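 GeneBLAzer PPARd UAS-bla HEK293H cells (beta-lactamase reporter under UAS control), plated and rested 5 h at 37 C, then exposed to compounds in DMSO at 37 C; LiveBLAzer B/G FRET substrate added, 2 h room temperature, fluorescence read.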

[9] = qHTS assay to identify small molecule antagonists of the peroxisome proliferator-activated receptor delta (PPARd) signaling pathway - cell viability counter screen (AID 743213; active means well fitted curve in the direction sought with a large enough effect in the repeat runs; inconclusive means weak or mixed curves; inactive means no such curve, though single readings can be large; an effect the other way counts as inactive or inconclusive; further: potency means the concentration at half of the fitted maximal effect; nearly all actives have a fitted effect of over 50% in size); conditions: PPARd-bla HEK293H viability, CellTiter-Glo luminescence, 17 h; viability change, negative = cytotoxic: at 62 µM (top of the series) unless noted
In short: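 Luminescence from CellTiter-Glo, added after the bla read and incubated 30 min at room temperature, gives viability of HEK293H PPARd-bla cells exposed to compounds for 17 h at 37 C with 300 nM L165041.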

[10] = target: Peroxisome proliferator-activated receptor delta (Homo sapiens) (UniProt Q03181); test: qHTS assay to identify small molecule antagonists of the peroxisome proliferator-activated receptor delta (PPARd) signaling pathway (AID 743215; active means well fitted inhibition curve with a large enough effect in the signal ratio in the repeat runs, not every such curve was filed as active; inconclusive means weak or mixed curves, or effect the other way; inactive means no such curve, though single readings can be large or run the other way; the % refers to the signal ratio;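 further: cells stimulated with agonist L165041 at 300 nM final during compound exposure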; further: potency means the concentration at half of the fitted maximal effect); conditions: HEK293H PPARd-UAS-bla, beta-lactamase FRET ratio, antagonist, 17 h; ratio activity, negative = inhibition: at 62 µM (top of the series) unless noted
In short: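 PPARd UAS-bla HEK293H cells were pre-incubated 5 h at 37 C, then given test compounds in DMSO plus agonist L165041 (300 nM final). After 17 h at 37 C, beta-lactamase FRET substrate was added; fluorescence read after 2 h at room temperature.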

[11] = qHTS assay to identify small molecule agonists of the farnesoid-X-receptor (FXR) signaling pathway - cell viability counter screen (AID 743218; active means well fitted curve in the direction sought with a large enough effect in the repeat runs; inconclusive means weak or mixed curves; inactive means no such curve, though single readings can be large; an effect the other way counts as inactive or inconclusive; further: potency means the concentration at half of the fitted maximal effect; nearly all actives have a fitted effect of over 45% in size); conditions: FXR-bla HEK293T viability, CellTiter-Glo luminescence, 16 h; viability change, negative = cytotoxic: at 62.6 µM (top of the series) unless noted
In short: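 FXR-UAS-bla HEK 293T cells, plated 5 h at 37 C, were exposed to compounds for 16 h at 37 C. CellTiter-Glo was then added to the same wells as the bla readout; luminescence read after 30 min at room temperature.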

[12] = target: Vitamin D3 receptor (Homo sapiens) (UniProt P11473); test: qHTS assay to identify small molecule agonists of the vitamin D receptor (VDR) signaling pathway (AID 743222); conditions: HEK293T VDR-UAS-bla, beta-lactamase FRET ratio, 16 h; activation: at 63.5 µM (top of the series) unless noted; further: potency means the concentration at half of the fitted maximal effect
Chain of UniProt P11473 (P11473 whole entry, looked up): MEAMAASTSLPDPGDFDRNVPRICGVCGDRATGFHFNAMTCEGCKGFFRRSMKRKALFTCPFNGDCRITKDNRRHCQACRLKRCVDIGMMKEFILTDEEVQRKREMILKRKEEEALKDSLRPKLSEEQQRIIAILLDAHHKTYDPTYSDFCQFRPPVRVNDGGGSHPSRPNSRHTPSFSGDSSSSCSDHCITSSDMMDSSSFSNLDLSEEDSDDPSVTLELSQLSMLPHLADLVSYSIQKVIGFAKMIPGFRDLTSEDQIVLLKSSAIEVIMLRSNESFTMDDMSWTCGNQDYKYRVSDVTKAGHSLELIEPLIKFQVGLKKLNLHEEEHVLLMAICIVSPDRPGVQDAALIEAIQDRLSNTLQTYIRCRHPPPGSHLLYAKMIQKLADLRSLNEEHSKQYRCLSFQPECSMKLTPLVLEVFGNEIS
In short: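 VDR-bla cells were plated 4 h at 37C/5% CO2, then exposed to compounds in DMSO for 16 h. After LiveBLAzer B/G FRET substrate addition and 2 h at room temperature, beta-lactamase reporter fluorescence was read.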

[13] = qHTS assay to identify small molecule agonists of the vitamin D receptor (VDR) signaling pathway - cell viability counter screen (AID 743224; active means well fitted curve in the direction sought with a large enough effect in the repeat runs; inconclusive means weak or mixed curves; inactive means no such curve, though single readings can be large; an effect the other way counts as inactive or inconclusive; further: potency means the concentration at half of the fitted maximal effect; nearly all actives have a fitted effect of over 50% in size)
In short: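 VDR-bla cells were preincubated 4 h at 37C/5% CO2, then exposed to compounds for 16 h. After the 2 h room-temperature bla FRET read, CellTiter-Glo was added to the same wells and luminescence read after 30 min.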

[14] = qHTS assay to identify small molecule antagonists of the vitamin D receptor (VDR) signaling pathway - cell viability counter screen (AID 743225; active means well fitted curve in the direction sought with a large enough effect in the repeat runs; inconclusive means weak or mixed curves; inactive means no such curve, though single readings can be large; an effect the other way counts as inactive or inconclusive; further: potency means the concentration at half of the fitted maximal effect; nearly all actives have a fitted effect of over 50% in size); conditions: VDR-bla HEK293T viability, CellTiter-Glo luminescence, 16 h; viability change, negative = cytotoxic: at 61 µM (top of the series) unless noted
In short: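 VDR-bla HEK 293T cells, 4 h pre-incubation at 37C, then compound plus 1-alpha,25-dihydroxyvitamin D3 (3 nM final) for 16 h. After the beta-lactamase FRET read, CellTiter-Glo was added to the same wells; luminescence after 30 min at room temperature.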

[15] = qHTS assay to identify small molecule agonists of the NFkB signaling pathway - cell viability counter screen (AID 1159515); further: nearly all actives have a fitted effect of over 55% in size; further: potency means the concentration at half of the fitted maximal effect
In short: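 NFkB-bla ME-180 cells, 2,000/well, were plated overnight at 37 C, 5% CO2, then exposed to compounds in DMSO for 5 hr. After the bla FRET read, CellTiter-Glo was added to the same wells; luminescence was read after 30 min at room temperature.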

[16] = target: Vitamin D3 receptor (Homo sapiens) (UniProt P11473); test: qHTS assay to identify small molecule antagonists of the vitamin D receptor (VDR) signaling pathway (AID 743223; active means well fitted inhibition curve with a large enough effect in the signal ratio in the repeat runs, not every such curve was filed as active; inconclusive means weak or mixed curves, or effect the other way; inactive means no such curve, though single readings can be large or run the other way; the % refers to the signal ratio; further: on the % scale 0 is the no-effect control and ±100 the full control effect); conditions: VDR-UAS-bla HEK293T, beta-lactamase FRET ratio, 16 h; activity change, negative = inhibition: at 61 µM (top of the series) unless noted
In short: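 VDR-bla cells were plated, incubated 4 h at 37C, then given compound and 1alpha,25-dihydroxyvitamin D3 (3 nM final). After 16 h at 37C, LiveBLAzer B/G FRET substrate was added for 2 h at room temperature and fluorescence read.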

[17] = target: Bile acid receptor (Homo sapiens) (UniProt Q96RI1); test: qHTS assay to identify small molecule antagonists of the farnesoid-X-receptor (FXR) signaling pathway (AID 743217; active means well fitted inhibition curve with a large enough effect in the signal ratio in the repeat runs, not every such curve was filed as active; inconclusive means weak or mixed curves, or effect the other way; inactive means no such curve, though single readings can be large or run the other way; the % refers to the signal ratio; further: on the % scale 0 is the no-effect control and ±100 the full control effect); conditions: HEK293T FXR-UAS-bla, beta-lactamase ratio, CDCA-stimulated, 16 h
Chain of UniProt Q96RI1 (Q96RI1 whole entry, looked up): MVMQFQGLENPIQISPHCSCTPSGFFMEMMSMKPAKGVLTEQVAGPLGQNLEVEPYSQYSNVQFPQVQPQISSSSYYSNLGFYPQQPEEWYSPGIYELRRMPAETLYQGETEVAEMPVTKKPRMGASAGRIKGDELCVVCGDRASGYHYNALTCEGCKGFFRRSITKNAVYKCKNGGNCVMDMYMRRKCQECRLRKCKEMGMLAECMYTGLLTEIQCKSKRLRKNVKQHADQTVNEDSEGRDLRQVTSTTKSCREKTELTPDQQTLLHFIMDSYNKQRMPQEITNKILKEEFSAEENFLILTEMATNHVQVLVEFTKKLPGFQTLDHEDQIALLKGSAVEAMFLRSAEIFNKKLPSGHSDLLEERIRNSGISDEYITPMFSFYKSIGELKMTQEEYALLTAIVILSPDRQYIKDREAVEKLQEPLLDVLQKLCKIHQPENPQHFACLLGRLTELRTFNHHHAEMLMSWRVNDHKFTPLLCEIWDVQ
In short: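 FXR-UAS-bla HEK 293T cells pre-incubated 5 h at 37 °C, then exposed to compounds with chenodeoxycholic acid (50 uM final) for 16 h at 37 °C. Beta-lactamase reporter read by LiveBLAzer B/G FRET substrate fluorescence after 2 h at room temperature.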

[18] = target: Bile acid receptor (Homo sapiens) (UniProt Q96RI1); test: qHTS assay to identify small molecule agonists of the farnesoid-X-receptor (FXR) signaling pathway (AID 743220; active means well fitted activation curve with a large enough effect in the signal ratio in the repeat runs, not every such curve was filed as active; inconclusive means weak or mixed curves, or effect the other way; the % refers to the signal ratio; further: potency means the concentration at half of the fitted maximal effect); conditions: HEK293T FXR-UAS-bla, beta-lactamase FRET ratio, 16 h; activation: at 62.6 µM (top of the series) unless noted
In short: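 Beta-lactamase reporter under UAS control in GeneBLAzer FXR HEK 293T cells (5000/well) measured with LiveBLAzer FRET substrate after 2 h at room temperature. Compound exposure lasted 16 h at 37C.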

[19] = qHTS assay to identify small molecule antagonists of the farnesoid-X-receptor (FXR) signaling pathway - cell viability counter screen (AID 743221; active means well fitted cell-killing curve with a large enough effect in the repeat runs, not every such curve was filed as active; inconclusive means weak or mixed curves, or effect the other way; inactive means no such curve, though single readings can be large or run the other way); conditions: FXR-bla HEK293T viability, CellTiter-Glo luminescence, 16 h; activity change, negative = cytotoxicity: at 62.6 µM (top of the series) unless noted
In short: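 FXR-UAS-bla HEK 293T cells were treated with test compounds plus chenodeoxycholic acid (50 uM final) for 16 h at 37 C. Cell viability in the same wells was then read as CellTiter-Glo luminescence after 30 min at room temperature.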

[20] = ratio activity, negative = inhibition: at 62.6 µM (top of the series) unless noted
Tags describe the fitted curve by direction and shape or compound fluorescence and quenching.

CC1(C)CC/C(=C/c2ccc(Cl)cc2)C1(O)Cn1cncn1 (configuration not stated)
inconclusive: ratio activity, negative = inhibition [1, 20] -28.1% | Potency [3] 30.5 µM | Potency [4] 7.65 µM [cytotoxic, partial curve, poor fit] | Potency [5] 0.608 µM [rising, full curve, poor fit] | Potency [6] 46 µM | Potency [7] 48.7 µM [rising, partial curve, poor fit] | Potency [8] 54.6 µM [partial curve, poor fit] | Potency [9] 54.6 µM [cytotoxic, single point] | Potency [10] 54.6 µM | Potency [11] 0.0771 µM [rising, full curve, poor fit] | Potency [12] 24.2 µM [fluorescent, partial curve, poor fit] | Potency [14] 0.866 µM [cytotoxic, full curve, poor fit] | Potency [15] 61.3 µM [cytotoxic, single point]
inactive: Potency [2]
active: Potency [13] 54.6 µM

CC(C)(C)C(O)(CCc1ccc(Cl)cc1)Cn1cncn1 (configuration not stated)
inactive: Potency [16] | Potency [15]
inconclusive: ratio activity, negative = inhibition [1, 20] -14.3% | activity change, negative = cytotoxicity [2] -32.1% [cytotoxic] [at 81.1 µM, co-treated with 50 nM rosiglitazone] | Potency [3] 19.3 µM [rising, partial curve, poor fit] | activation [3] 24.1% [at 94.8 µM] | Potency [4] 13.9 µM [cytotoxic, partial curve, poor fit] | activity change, negative = cytotoxicity [7] -43% [cytotoxic] [at 81.1 µM] | Potency [9] 62.4 µM [cytotoxic, partial curve, poor fit] | ratio activity, negative = inhibition [10] -42.6% [at 80.4 µM] | Potency [11] 0.0125 µM [rising, full curve, poor fit] | Potency [13] 55.6 µM [cytotoxic]

CCCC(C)(COC(N)=O)COC(=O)NC(C)C (configuration not stated)
inconclusive: ratio activity, negative = inhibition [1, 20] 2.99% | Potency [9] 0.944 µM [rising, full curve, poor fit] | activity change, negative = inhibition [16] 21% | Potency [13] 24.5 µM [rising, partial curve, poor fit] | Potency [14] 21.8 µM [rising, single point] | Potency [15] 2.18 µM [cytotoxic, single point]
inactive: ratio activity, negative = inhibition ([1]; at 62.6 µM (top of the series)) 19.6%

ClC1=C(Cl)[C@]2(Cl)[C@H]3[C@H]([C@H]4C=C[C@H]3C4)[C@@]1(Cl)C2(Cl)Cl
inconclusive: ratio activity, negative = inhibition [1, 20] 18.1% | Potency [2] 3.09 µM [cytotoxic, partial curve, poor fit] | activation [3] -32.6% | ratio activity, negative = inhibition [10] -11.1% | Potency [12] 49 µM [rising, partial curve, poor fit] | activity change, negative = inhibition [16] 7.98% | Potency [15] 6.16 µM [rising, full curve]

CC(C)CC(C)N (configuration not stated)
inactive: Potency [3]
inconclusive: ratio activity, negative = inhibition [1, 20] 18.9% | Potency [2] 53.6 µM [rising, single point] | Potency [9] 1.9 µM [cytotoxic, full curve, poor fit] | Potency [15] 53.6 µM [rising, single point]

Nc1ccc(N)cc1
inconclusive: ratio activity, negative = inhibition ([1]; at 62.6 µM (top of the series)) -1.09% | ratio activity, negative = inhibition ([1]; at 81.1 µM (top of the series)) -19.5% | Potency [4] 77 µM [cytotoxic, single point] | Potency [7] 34.8 µM [cytotoxic, partial curve] | Potency [9] 22 µM [cytotoxic, single point] | activity change, negative = inhibition ([17]; at 62.6 µM (top of the series)) -22.4% | activity change, negative = inhibition ([17]; at 81.1 µM (top of the series)) -16.4% | Potency [18] 61.9 µM [activator, partial curve, poor fit] | Potency [15] 61.7 µM [rising, partial curve, poor fit] and 16.9 µM [rising, partial curve, poor fit]

CCOP(=S)(NC(C)C)Oc1ccccc1C(=O)OC(C)C (configuration not stated)
inactive: Potency [1, 20] | Potency [15]
active: Potency [3] 54.5 µM | Potency [11] 21.9 µM
inconclusive: Potency [4] 38.6 µM [cytotoxic, partial curve] | activity change, negative = inhibition ([17]; activity change, negative = inhibition: at 62.6 µM (top of the series) unless noted) -29.9% | Potency [19] 15.5 µM [falling, partial curve, poor fit]

CCOC(=O)C1OC1(C)c1ccccc1 (configuration not stated)
inactive: ratio activity, negative = inhibition ([1]; at 62.6 µM (top of the series)) 8.25% | Potency [4]
inconclusive: ratio activity, negative = inhibition [1, 20] -40.9% [at 81.1 µM] | activation [3] 17.1% [at 94.8 µM] | Potency [15] 5.54 µM [cytotoxic, single point]
